Test results taken from the supplement of paper PMC3722116.
Growth of fresh clinical P. falciparum isolates by hypoxanthine uptake over 42 h; for most isolates 1.6-1,647 nM mefloquine, 0.044-87 nM artesunate, 10-10,256 nM chloroquine, 2.4-236 nM lumefantrine. EC50, lower = more sensitive; slope from the same fit, higher = steeper. No active / inactive call. Fits with a coefficient of variation above 100% are not listed here; 15-28% of fits exceed 15%. Isolates are numbered anew.

Key:
mefloquine [1] = compound: T1, OC(c1cc(C(F)(F)F)nc2c(C(F)(F)F)cccc12)C1CCCCN1 [mefloquine]; experiment: slope of the dose-response curve (dimensionless); higher = steeper concentration-effect curve
Description: (§1)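 Hypoxanthine uptake by fresh isolates, duplicate serial dilutions, 24 h of drug plus 18 h after the label; sigmoid fit per isolate.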

chloroquine [2] = compound: T2, CCN(CC)CCCC(C)Nc1ccnc2cc(Cl)ccc12 [chloroquine]; experiment: as above
Description: as §1

lumefantrine [3] = compound: T3, CCCCN(CCCC)CC(O)c1cc(Cl)cc2c1-c1ccc(Cl)cc1/C2=C/c1ccc(Cl)cc1 [lumefantrine]; experiment: as above
Description: as §1

artesunate [4] = compound: T4, C[C@H]1[C@H](OC(=O)CCC(=O)O)O[C@@H]2O[C@@]3(C)CC[C@H]4[C@H](C)CC[C@@H]1[C@@]24OO3 [artesunate]; experiment: as above
Description: as §1

mefloquine [5] = compound: T1, mefloquine
Description: as §1

chloroquine [6] = compound: T2, chloroquine
Description: as §1

lumefantrine [7] = compound: T3, lumefantrine
Description: as §1

artesunate [8] = compound: T4, artesunate
Description: as §1

Test System	slope (mefloquine [1])	slope (chloroquine [2])	slope (lumefantrine [3])	slope (artesunate [4])	EC50 of parasite growth (mefloquine [5]) [µg/mL]	EC50 of parasite growth (chloroquine [6]) [µg/mL]	EC50 of parasite growth (lumefantrine [7]) [µg/mL]	EC50 of parasite growth (artesunate [8]) [µg/mL]
Plasmodium falciparum isolate 269 (pfmdr1 allele: 86N, 1042N, pfmdr1 copies: 1)	1.04	3.03	4.08	1.32	0.0292	0.188	0.0659	0.00253
Plasmodium falciparum isolate 487 (pfmdr1 allele: 86N, 1042N, pfmdr1 copies: 2)	1.86	3.28	1.85	3.75	0.017	0.149	0.00613	0.0004
Plasmodium falciparum isolate 313 (pfmdr1 allele: 86N, 1042N, pfmdr1 copies: 1)	3.65	2.59	2.08	7.41	0.0283	0.0616	0.0214	0.00118
Plasmodium falciparum isolate 321 (pfmdr1 allele: 86Y, pfmdr1 copies: 1)	3.71	8.08	4.4	9.97	0.00683	0.147	0.0221	0.00169
Plasmodium falciparum isolate 179 (pfmdr1 allele: 86N, 1042N, pfmdr1 copies: 1)	2.55	2.84	2.41	2.96	0.013	0.0374	0.0086	0.000489
Plasmodium falciparum isolate 36 (pfmdr1 allele: 86N, 1042N, pfmdr1 copies: 3)	2.36	2.33	2.12	2.72	0.0312	0.165	0.00851	0.000484
Plasmodium falciparum isolate 72 (pfmdr1 allele: 86N, 1042N, pfmdr1 copies: 1)	5.44	3.67	5.01	4.73	0.0131	0.0667	0.00556	0.000432
Plasmodium falciparum isolate 157 (pfmdr1 allele: 86N, 1042N, pfmdr1 copies: 1)	1.99	3.37	1.95	4.5	0.0328	0.0706	0.0182	0.00106
Plasmodium falciparum isolate 7 (pfmdr1 allele: 86Y, pfmdr1 copies: 1)	1.86	1.91	1.57	4.93	0.00354	0.101	0.00346	0.000572
